According to PubChem BioAssay AID1508642 (National Center for Advancing Translational Sciences (NCATS), 2021):
Hit rate of the full screen: of about 43,000 compounds, about 200 (0.47%) were called active. Not shown: some 12% with an inconclusive outcome. Calls follow the shape of the dose curve; as a rule, active = well fitted cell-killing curve with a large enough effect; inconclusive = small, poorly fitted or top-dose-only effect, or effect the other way; inactive = flat fitted curve, though single readings scatter. Some of the results follow.

Assay: Cell viability qHTS assay in S16 Pmp22-F2sN cells; also: nearly all actives have a fitted effect of over 65% in size
Details: S16 Pmp22-F2sN Schwann cells (luciferase reporters placed in the Pmp22 gene) viability, CellTiter-Glo, 24 h; series mostly up to 57.5 µM; activity change, negative = cytotoxicity: at the top concentration
Summary of the method: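 Seed 500-1,000 S16 Pmp22-F2sN cells per well in phenol-red-free DMEM with 10% heat-inactivated FBS; pin-add 23 nL compound; incubate 24 h at 37C; add CellTiter-Glo, wait 15 min protected from light; read luminescence.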
% is scaled to controls: 0 for no effect and ±100 for the full control effect; potency is read from the fitted curve at half-maximal effect.

SMILES	activity change, negative = cytotoxicity	Potency
COC(=O)c1ccc(NC(=O)c2cc(S(=O)(=O)N3CCOCC3)cn2C)cc1	inactive: 12.9%	
Cc1ccccc1OCC(=O)Nc1ccc(S(=O)(=O)N(Cc2ccccc2)c2ccccc2)cc1	inactive: -5.24%	
CC(=O)Nc1ccc(NS(=O)(=O)c2c(C(=O)N3CCCCCC3)c(C)n(C)c2C)cc1	inactive: 4.21%	
CN(C)c1ccc(NC(=O)Cn2c(SCc3ccc(F)cc3)nc3ccncc32)cc1	inactive: -28.3%	
COc1ccc(CCNC(=O)CSc2cn(CCNC(=O)c3c(F)cccc3F)c3ccccc23)cc1OC	inactive: 12.6%	
Cc1oc2cc3oc(=O)c(CCC(=O)NCCc4ccccc4F)c(C)c3cc2c1C	inactive: -0.45%	
COc1ccc(-c2nc3c(c(SCc4ccc(Br)cc4)n2)Cc2c(CO)cnc(C)c2O3)cc1	inactive: -3.35%	
Cc1ccc(OCCSc2nnc(-c3cccs3)o2)cc1	inactive: 3.05%	
Cc1ccc(C(=O)COC(=O)CCC(=O)Nc2ccc(Oc3ccccc3)cc2)cc1	inactive: 7.16%	
COc1ccc(Cn2c(=O)c3oc4ccccc4c3n(CC(=O)Nc3c(C)cccc3C)c2=O)cc1	inactive: 8.3%	
COc1ccc(N2CCN(S(=O)(=O)c3ccc(-c4coc(C)n4)cc3)CC2)cc1	inactive: -6.43%	
CCOc1ccc(CC(=O)Nc2c(C(=O)c3ccccc3)oc3ccc(Cl)cc23)cc1OCC	inactive: 0.783%	
CCCCC12CN3CC(C)(CN(C1)C3c1c[nH]c3ccccc13)C2=O (configuration not stated)	inactive: 15.1%	
Cc1cccc(CSc2nc3c([nH]c4ccccc43)c(=O)n2C)c1	inactive: 0.703%	
Cc1ccc(NC(=O)C(CC(C)C)N2Cc3ccccc3C2=O)cc1F (configuration not stated)	inactive: -10.5%	
CNS(=O)(=O)c1cn(CC(=O)N2CCN(c3ccc(C(C)=O)cc3)CC2)cc1S(=O)(=O)NC	inactive: 12.6%	
COc1cc2c(cc1OC)n(CC(=O)c1cc(C)ccc1C)c(=O)n1nc(CCn3nc(C)cc3C)nc21	inactive: 7.29%	
Cc1c(CCNC(=O)c2ccc(C(C)(C)C)cc2)sc2nc(-c3ccc(F)cc3)nn12	inactive: -1.51%	
CC1=C(C(=O)Nc2cccnc2)C(c2ccc(C)cc2)n2nc(SCc3ccccc3F)nc2N1 (configuration not stated)	inactive: 16.6%	
CCc1cc2c(cc3c(=O)n(CCCC(=O)NCc4cccc(Br)c4)ncn32)s1	inactive: -0.633%	
CC(=O)Nc1ccccc1-c1nc2ccccc2n(CC(=O)Nc2cccc(C)c2C)c1=O	inactive: -3.3%	
Cc1ccc2nc(SCc3nc(-c4ccc(Cl)cc4)no3)[nH]c2c1	inactive: -8.53%	
O=C(CSc1nc(=O)n(CCN2CCOCC2)c2c1CCC2)Nc1ccc(Cl)c(Cl)c1	inactive: 7.12%	
O=C(Nc1ccc(F)c(Cl)c1)Nc1c[nH]c(=O)[nH]c1=O	inactive: -8.58%	

SMILES	activity change, negative = cytotoxicity	Potency
COc1ccc(C2CC(=O)N(Cc3ccc(C)cc3)c3c2c(C)nn3-c2nc(C)cc(C)n2)c(OC)c1 (configuration not stated)	inactive: -12.9%	
Cc1cc2c(cc1S(=O)(=O)Nc1cccc(Cl)c1C)n(C)c(=O)c(=O)n2C	inactive: -12.1%	
CCOC(=O)c1cc(-c2ccccc2)n(CCC(=O)Nc2ccccc2CC)c1C	inactive: 3.44%	
COc1ccc(NC(=O)c2cc3cc(C)ccc3[nH]2)cc1	inactive: 12.2%	
COc1ccccc1N1CCN(c2ccc(=O)n(CC(=O)NCc3ccc(F)cc3)n2)CC1	inactive: -3.4%	
O=C(OCc1cc(=O)n2nc(-c3cccs3)sc2n1)c1ccccc1Cl	inactive: -3.54%	
COc1cccc(CSc2nc3n(n2)C(c2ccc(C(=O)O)cc2)C(C(=O)Nc2ccccc2)=C(C)N3)c1 (configuration not stated)	inactive: 2.8%	
CCOc1ccccc1NC(=O)CSc1nc2c(oc3ccccc32)c(=O)n1-c1ccc(F)cc1	inactive: -1.33%	
CC(C)(C)C(=O)CSc1nc2ccsc2c(=O)n1Cc1ccccc1Cl	inactive: -0.042%	
CSc1ccc(CCNC(=O)c2cc(C)nc3c2c(C)nn3-c2cccc(F)c2)cc1	inactive: -2.85%	
Cc1c(C(=O)N2CCCCCC2)c(S(=O)(=O)NCc2ccccc2)c(C)n1C	inactive: 1.72%	
Cc1ccc(-n2nc(C(=O)N3CCN(c4ccccc4F)CC3)c(=O)n(C)c2=O)cc1	inactive: -4.12%	
CCCCCc1ccc(-c2ccc(Br)cc2)nc1	inactive: 12%	
O=C(NCc1ccccc1F)C(=O)NCC(c1ccc2c(c1)OCO2)N1CCOCC1 (configuration not stated)	inactive: 1.05%	
CCOc1ccc(CCNC(=O)c2c(C)oc3ncn(CC(C)C)c(=O)c23)cc1OCC	inactive: -2.65%	
CC(=O)N1CCc2c(sc3c2c(=O)n(-c2ccccc2)c(=O)n3CC(=O)Nc2cc(C)cc(C)c2)C1	inactive: -3.96%	
CCc1ccc(NC(=O)CSc2nc(C)c(C(=O)Nc3ccccc3)c(-c3ccc(OC)c(OC)c3)c2C#N)cc1	inactive: -3.64%	
Cc1cc(Br)ccc1NC(=O)CSc1c2c(nc3ccccc13)CCC2	inactive: 6.83%	
Cc1c(NC(=O)c2cccs2)cccc1-c1nc2cc(Cl)ccc2o1	inactive: 9.7%	
COc1ccc(S(=O)(=O)n2nc(-c3ccco3)nc2NCc2ccc(C(C)C)cc2)cc1	inactive: 3.61%	
CCOc1ccc(NC(=O)c2nc(S(=O)(=O)Cc3ccccc3F)ncc2Cl)cc1		active: 5.01 µM
CCc1ccc(-c2nc3cc(NC(=O)c4ccc(C)c(C)c4)ccc3o2)cc1	inactive: -8.48%	
CCc1nnc2c3ccccc3nc(Nc3cc(C)cc(C)c3)n12	inactive: 0.967%	
